# According to the supplement of paper PMC8728848:
# This is one part of the list.
# Experiments:
# Experiment in all cases: glycan array binding signal (z-score within array); higher = stronger binding
# Conditions in all cases: glycan notation: IUPAC condensed, linker removed
# [1] = target: GlcNAc(b1-6)GalNAc
# Procedure, shortened: (§1)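 Glycan array binding is given as a within-array Z-score, which can be read as non-binding when negative. The arrays, 3228 of them, came from the Consortium for Functional Glycomics database and were retained only where the protein sequence was available. Z-scores were averaged across arrays of the same protein sequence at different concentrations or buffers and across linkers.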
# [2] = target: GlcNAc3Prop(b1-4)GlcNAc
# Procedure, shortened: as §1
# [3] = target: GlcNAc6S(b1-3)Gal(b1-4)GlcNAc
# Procedure, shortened: as §1
# [4] = target: Kdn(a2-3)Gal(b1-3)GalNAc
# Procedure, shortened: as §1
# [5] = target: Kdn(a2-3)Gal(b1-3)GlcNAc
# Procedure, shortened: as §1
# [6] = target: Kdn(a2-3)Gal(b1-4)Glc
# Procedure, shortened: as §1
# [7] = target: Kdn(a2-3)Gal(b1-4)GlcNAc
# Procedure, shortened: as §1
# [8] = target: Kdn(a2-3)Gal(b1-4)[Fuc(a1-3)]GlcNAc
# Procedure, shortened: as §1
# [9] = target: Kdn(a2-6)Gal(b1-4)GlcNAc
# Procedure, shortened: as §1
# [10] = target: Man(a1-2)Man(a1-2)Man(a1-3)Man
# Procedure, shortened: as §1
# [11] = target: Man(a1-2)Man(a1-2)Man(a1-3)[Man(a1-2)Man(a1-3)[Man(a1-2)Man(a1-6)]Man(a1-6)]Man(b1-4)GlcNAc(b1-4)GlcNAc
# Procedure, shortened: as §1
# [12] = target: Man(a1-2)Man(a1-2)Man(a1-3)[Man(a1-2)Man(a1-6)[Man(a1-3)]Man(a1-6)]Man(b1-4)GlcNAc(b1-4)GlcNAc
# Procedure, shortened: as §1
# [13] = target: Man(a1-2)Man(a1-2)Man(a1-6)[Man(a1-3)]Man
# Procedure, shortened: as §1
# [14] = target: Man(a1-2)Man(a1-3)Man
# Procedure, shortened: as §1
# [15] = target: Man(a1-2)Man(a1-3)[Man(a1-2)Man(a1-6)]Man
# Procedure, shortened: as §1
# [16] = target: Man(a1-2)Man(a1-3)[Man(a1-2)Man(a1-6)]Man(a1-6)[Man(a1-2)Man(a1-2)Man(a1-3)]Man
# Procedure, shortened: as §1
# [17] = target: Man(a1-2)Man(a1-3)[Man(a1-2)Man(a1-6)]Man(a1-6)[Man(a1-2)Man(a1-2)Man(a1-3)]Man(b1-4)GlcNAc(b1-4)GlcNAc
# Procedure, shortened: as §1
# [18] = target: Man(a1-2)Man(a1-3)[Man(a1-3)[Man(a1-6)]Man(a1-6)]Man(b1-4)GlcNAc(b1-4)GlcNAc
# Procedure, shortened: as §1
# [19] = target: Man(a1-2)Man(a1-3)[Man(a1-6)]Man(a1-6)[Man(a1-2)Man(a1-3)]Man(b1-4)GlcNAc(b1-4)GlcNAc
# Procedure, shortened: as §1
# [20] = target: Man(a1-2)Man(a1-6)[Man(a1-3)]Man(a1-6)[Man(a1-2)Man(a1-2)Man(a1-3)]Man
# Procedure, shortened: as §1
# [21] = target: Man(a1-2)Man(a1-6)[Man(a1-3)]Man(a1-6)[Man(a1-2)Man(a1-2)Man(a1-3)]Man(b1-4)GlcNAc(b1-4)GlcNAc
# Procedure, shortened: as §1
# [22] = target: Man(a1-3)[Man(a1-6)]Man
# Procedure, shortened: as §1
# [23] = target: Man(a1-3)[Man(a1-6)]Man(a1-6)[Man(a1-2)Man(a1-3)]Man(b1-4)GlcNAc(b1-4)GlcNAc
# Procedure, shortened: as §1
# [24] = target: Man(a1-3)[Man(a1-6)]Man(a1-6)[Man(a1-3)]Man
# Procedure, shortened: as §1
# [25] = target: Man(a1-3)[Man(a1-6)]Man(a1-6)[Man(a1-3)]Man(b1-4)GlcNAc(b1-4)GlcNAc
# Procedure, shortened: as §1
# [26] = target: Man(a1-3)[Man(a1-6)]Man(b1-4)GlcNAc(b1-4)GlcNAc
# Procedure, shortened: as §1
# [27] = target: Man(a1-3)[Man(a1-6)]Man(b1-4)GlcNAc(b1-4)[Fuc(a1-6)]GlcNAc
# Procedure, shortened: as §1
# [28] = target: Man(a1-6)Man
# Procedure, shortened: as §1
# [29] = target: Man(b1-4)GlcNAc
# Procedure, shortened: as §1
# [30] = target: MurNAc(b1-4)GlcNAc
# Procedure, shortened: as §1
# [31] = target: Neu5Ac(a2-3)Gal
# Procedure, shortened: as §1
# [32] = target: Neu5Ac(a2-3)Gal(b1-3)GalNAc
# Procedure, shortened: as §1
# [33] = target: Neu5Ac(a2-3)Gal(b1-3)GalNAc(b1-3)Gal(a1-4)Gal(b1-4)Glc
# Procedure, shortened: as §1
# [34] = target: Neu5Ac(a2-3)Gal(b1-3)GalNAc(b1-4)Gal(b1-4)Glc
# Procedure, shortened: as §1
# [35] = target: Neu5Ac(a2-3)Gal(b1-3)GalNAc(b1-4)[Neu5Ac(a2-3)]Gal(b1-4)Glc
# Procedure, shortened: as §1
# [36] = target: Neu5Ac(a2-3)Gal(b1-3)GalNAc(b1-4)[Neu5Ac(a2-8)Neu5Ac(a2-3)]Gal(b1-4)Glc
# Procedure, shortened: as §1
# [37] = target: Neu5Ac(a2-3)Gal(b1-3)GalNAc6S
# Procedure, shortened: as §1
# [38] = target: Neu5Ac(a2-3)Gal(b1-3)GlcNAc
# Procedure, shortened: as §1
# [39] = target: Neu5Ac(a2-3)Gal(b1-3)GlcNAc(b1-2)Man
# Procedure, shortened: as §1
# [40] = target: Neu5Ac(a2-3)Gal(b1-3)GlcNAc(b1-2)Man(a1-3)[GlcNAc(b1-4)][Neu5Ac(a2-3)Gal(b1-3)GlcNAc(b1-2)Man(a1-6)]Man(b1-4)GlcNAc(b1-4)GlcNAc
# Procedure, shortened: as §1
# [41] = target: Neu5Ac(a2-3)Gal(b1-3)GlcNAc(b1-2)Man(a1-3)[Neu5Ac(a2-3)Gal(b1-3)GlcNAc(b1-2)Man(a1-6)]Man(b1-4)GlcNAc(b1-4)GlcNAc
# Procedure, shortened: as §1
# [42] = target: Neu5Ac(a2-3)Gal(b1-3)GlcNAc(b1-2)[Neu5Ac(a2-3)Gal(b1-3)GlcNAc(b1-4)]Man(a1-6)[Neu5Ac(a2-3)Gal(b1-3)GlcNAc(b1-2)Man(a1-3)]Man(b1-4)GlcNAc(b1-4)GlcNAc
# Procedure, shortened: as §1
# [43] = target: Neu5Ac(a2-3)Gal(b1-3)GlcNAc(b1-3)Gal(b1-3)GlcNAc
# Procedure, shortened: as §1
binder,measurement,setting,value
Gal 7 (Homo sapiens) (protein) MSNVPHKSSLPEGIRPGTVLRIRGLVPPNASRFHVNLLCGEEGGSDAALHFNPRLDTSEVVFNSKEGGSWGREERGPGVPFGRGQPFEVLIIASDDGFKAVVGDAQYHHFRHRLPLARVRLVEVGGDVQLDSVRIF,glycan array binding signal (z-score),[1],-0.231
same,glycan array binding signal (z-score),[2],-0.394
same,glycan array binding signal (z-score),[3],-0.092
same,glycan array binding signal (z-score),[4],0.117
same,glycan array binding signal (z-score),[5],0.491
same,glycan array binding signal (z-score),[6],-0.275
same,glycan array binding signal (z-score),[7],-0.241
same,glycan array binding signal (z-score),[8],0.11
same,glycan array binding signal (z-score),[9],-0.258
same,glycan array binding signal (z-score),[10],-0.351
same,glycan array binding signal (z-score),[11],-0.353
same,glycan array binding signal (z-score),[12],-0.333
same,glycan array binding signal (z-score),[13],-0.328
same,glycan array binding signal (z-score),[14],-0.3
same,glycan array binding signal (z-score),[15],-0.331
same,glycan array binding signal (z-score),[16],-0.34
same,glycan array binding signal (z-score),[17],-0.179
same,glycan array binding signal (z-score),[18],-0.386
same,glycan array binding signal (z-score),[19],-0.235
same,glycan array binding signal (z-score),[20],-0.335
same,glycan array binding signal (z-score),[21],-0.185
same,glycan array binding signal (z-score),[22],-0.319
same,glycan array binding signal (z-score),[23],-0.158
same,glycan array binding signal (z-score),[24],-0.088
same,glycan array binding signal (z-score),[25],-0.156
same,glycan array binding signal (z-score),[26],-0.303
same,glycan array binding signal (z-score),[27],0.04
same,glycan array binding signal (z-score),[28],-0.167
same,glycan array binding signal (z-score),[29],-0.302
same,glycan array binding signal (z-score),[30],-0.278
same,glycan array binding signal (z-score),[31],-0.336
same,glycan array binding signal (z-score),[32],-0.257
same,glycan array binding signal (z-score),[33],-0.132
same,glycan array binding signal (z-score),[34],-0.289
same,glycan array binding signal (z-score),[35],-0.227
same,glycan array binding signal (z-score),[36],0.004
same,glycan array binding signal (z-score),[37],-0.315
same,glycan array binding signal (z-score),[38],0.294
same,glycan array binding signal (z-score),[39],-0.261
same,glycan array binding signal (z-score),[40],0.011
same,glycan array binding signal (z-score),[41],-0.231
same,glycan array binding signal (z-score),[42],-0.212
same,glycan array binding signal (z-score),[43],0.626
